Experimental data published in PMC12136788.
The other results are listed elsewhere or left out.

B1: chr17:65740002:65740003:+_ENSG00000130935_ENST00000581375|hu_hu|hu_hu_hu_mus_False|28_68 (ssRNA)
RNA: GGGAGUUCUACAGUCCGACGAUCAACAAAUCUUUCUUCCCUGGACGAACAGGAAGAUUCAUAUUAACUUUAUAAAAUAUCCAUCAAGUUAGGUGUGGUGGCCACACAGAGCUCCAGAGCACUUUGGGAGGUGGAUCUCUGAGUCAACAGAGGAUUGAGCAUCA
B2: chr7:7679991:7679992:-_ENSG00000106399_ENST00000396682|hu_hu|FALSE|FALSE (ssRNA)
RNA: GGGAGUUCUACAGUCCGACGAUCUGGGAUGAAUCUUUUCCAGCCUCCCUACGAAGCAGACAGGCUUGUCGAUGAAUUGAGCUAGCAUGCCGGCGUUGAUGCGCGACCUGGGCAAGUCCAUCAUGUCCACCAUGAUUAUGGUCCCAACAGAGGAUUGAGCAUCA
B3: chr7:10979719:10979720:-_ENSG00000189043_ENST00000339600|hu_hu|FALSE|FALSE (ssRNA)
RNA: GGGAGUUCUACAGUCCGACGAUCUGAUCUGGCGGAGCAUGUUUGCGGCAGAGGUCUCCGACUGGAAAGGAGAGAACCGACCUAGCCACCAGGCCCUAAGCUAAAAAUUAUCUGCAAUGAGACACUACGGACUUCCAAAGUCACCAACAGAGGAUUGAGCAUCA
B4: chr7:92027835:92027836:+_ENSG00000001629_ENST00000265742|hu_hu|FALSE|FALSE (ssRNA)
RNA: GGGAGUUCUACAGUCCGACGAUCAUUGAUGUUGGGGUCCUGGCCAGCUGAGUCAGGAUCACUAGAUGAGGGACAGAAAUCACUUCUUGCCUCACUGAGAGGGUGUGAGCUCAGGGUGUCAGUUGAAAAUGGGUCAUUCUCUGCCAACAGAGGAUUGAGCAUCA
B5: chr3:9412954:9412955:+_ENSG00000134077_ENST00000452837|hu_mus|hu_hu_hu_mus_False|38_108 (ssRNA)
RNA: GGGAGUUCUACAGUCCGACGAUCGGUUGAUACAUCCUCUUUGAUGGCUGGAUUUUCAUAAUAGUCCAAGAUAUGUGAAUCUGAAGUGCUGCUGGCAAACUCUUUUUUACCAUCUUUCUCAUCUGCUUUGUCUCCUUGUCCACACAACAGAGGAUUGAGCAUCA
B6: chr8:35901500:35901501:-_ENSMUSG00000031529_ENSMUST00000033929|mus_hu|FALSE|FALSE (ssRNA)
RNA: GGGAGUUCUACAGUCCGACGAUCUAUAUAGCAUGACCUGUCCUUGUGUGUAGGGCAGCCUGUUCCUCCUCCAAUUCCAUAAACAUAUUGGUUGCUUUUUGAGGAGUUUUCAGCAAAAUAAAUCCCGGCCCCAAACAUUCCUCCCAACAGAGGAUUGAGCAUCA
B7: chr9:101115835:101115836:-_ENSMUSG00000043154_ENSMUST00000075941|mus_hu|FALSE|FALSE (ssRNA)
RNA: GGGAGUUCUACAGUCCGACGAUCACUAUCAUAAAUCUUAGUUGGUAGUAGAGAAGUAUUGUGAUAACUGAGUCCUCCAAAGGUUUAAAUGAUUCAUUUUUCUGUGAAUGACAGAGAAACCUCGUUGCCCGCGGCUCCUCCUCCCAACAGAGGAUUGAGCAUCA
B8: chr2:220084271:220084272:-_ENSG00000198925_ENST00000396761|hu_hu|FALSE|FALSE (ssRNA)
RNA: GGGAGUUCUACAGUCCGACGAUCGGGUGAGGGGUGGGACAGAGAGUAGGAGCAGUCCCAGCAUGCAGUGCAGCAGCCCAAAGCCUCGGGCGAGGCAUCGCCCUUCAUCCCCCUUCAGGGCACAGCGAGAUGCGGGCCAGAGCUCAACAGAGGAUUGAGCAUCA
B9: 31526367_31530038_193_CDS_ENSMUSG00000039356_ENSMUST00000038474|mouse|control|control (ssRNA)
RNA: GGGAGUUCUACAGUCCGACGAUCGUAUCUGGUUUUCAAGGCUUUGACACAGAUCAGUUUGUUCACUCUCUCCACAGAGCCGGCCACAGACGCAAUGAGCUUCUCUUCCCCCAUGUAUGUCCCAUGGCCCCGCAUGAAGCCUGUCAACAGAGGAUUGAGCAUCA
B10: chr1:38489269:38489270:+_ENSG00000183520_ENST00000537711|hu_hu|motif|central (ssRNA)
RNA: GGGAGUUCUACAGUCCGACGAUCUUUGAAGUUACUAGAAAACGACAACAGAUUUUUGAUACAGAAUGACAAGGCUUAUCGGUAACACGUCAACGUUUUCGACGACUCUGAAAUUUAUAAAUAGCUGGGGAGUUCACCGUUUCUCAACAGAGGAUUGAGCAUCA
B11: chr11:43861564:43861565:+_ENSG00000149084_ENST00000278353|hu_hu|FALSE|FALSE (ssRNA)
RNA: GGGAGUUCUACAGUCCGACGAUCCAGUUUUGUAGCUACGAAGUAUGGCAGGACACUCUGCACAAAGACGCCCUUGCUCCUAUACUCCUCAUGGAGGCACUGAGAGAAGAAAUCUACAAAAGUCUUGGUUGCAGAAUAGAUGGUCAACAGAGGAUUGAGCAUCA
B12: 138659546_138659666_671_3pUTR_ENSMUSG00000050608_ENSMUST00000143971|mouse|control|control (ssRNA)
RNA: GGGAGUUCUACAGUCCGACGAUCGGUGCCACCAGUCUUGGGAUGGGGGUGGGAAGGUCAACUGUGCAUUAGGGGAGUGCGUUGGACAUGUCUGUGUCUUCAGGAGGUCACAGAGGCCACAGCUAGGCCAUUCAAAUAGAAGCCCAACAGAGGAUUGAGCAUCA
B13: chr4:140556289:140556290:+_ENSMUSG00000036622_ENSMUST00000037055|mus_mus|mus_mus_mus_hu_False|48_78 (ssRNA)
RNA: GGGAGUUCUACAGUCCGACGAUCGAUGGAGCUCACCAGGCCCCCUUUUGCCGUGCAGAACCCUGUCCGGGUCACCACUGCCAGGACACGGGGUCCCACAUAGGCCCGGGCCUGCAAGAUGAGGGUCCCGCAGAAGAGUGUGUGCAACAGAGGAUUGAGCAUCA
B14: 3121088_3121208_1293_3pUTR_ENSG00000088256_ENST00000078429|human|control|control (ssRNA)
RNA: GGGAGUUCUACAGUCCGACGAUCGUCUCCAUCCCGUCUCCCUGGGCCUGGGCGCUCAGACCAGGUUGUACUCCUUGAGGUUGAGCUGCAGGAUGGUGUCCUUCACGGCCGCGAACACGAAGCGGAUGUUCUCCGUGUCGGUGGCAACAGAGGAUUGAGCAUCA

What follows are binders tested against T1, UNK ZnF1-3 (human, UniProt Q9C0B0 31-174) (assay: nsRBNS (natural sequence RNA bind-n-seq); RBNS binding buffer (assumed for nsRBNS): 25 mM Tris pH 7.5, 150 mM KCl, 3 mM MgCl2, 0.01% Triton X-100, 500 ug/ml BSA, 20 U/ml SUPERase-In, 4 C; UNK is unkempt and MSI1 is Musashi-1; names of the RNAs are library labels; protein concentration not given here; high values mean tight binding).
T1 sequence: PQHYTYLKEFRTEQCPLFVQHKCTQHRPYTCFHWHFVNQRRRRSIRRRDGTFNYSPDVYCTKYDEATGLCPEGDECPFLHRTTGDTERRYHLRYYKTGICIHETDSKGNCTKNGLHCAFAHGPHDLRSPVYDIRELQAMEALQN

Binder	binding signal [enrichment R]
B1	1.3
B2	1.02
B3	1.22
B4	1.33
B5	0.627
B6	1.26
B7	0.806
B8	1.12
B9	0.926
B10	2.6
B11	1.18
B12	1.69
B13	1.1
B14	0.848
